The whole screen tested about 310,000 compounds, of which about 2,200 (0.71%) showed an effect of 50% or more. The effect is printed as a negative number. The list shows a part of the results.
Target: human ether-à-go-go-related gene (hERG) potassium channel (human, UniProt Q12809)
Assay: primary screen, population patch clamp on CHO cells stably expressing hERG

Chain of human ether-à-go-go-related gene (hERG) potassium channel (Q12809 whole entry, looked up): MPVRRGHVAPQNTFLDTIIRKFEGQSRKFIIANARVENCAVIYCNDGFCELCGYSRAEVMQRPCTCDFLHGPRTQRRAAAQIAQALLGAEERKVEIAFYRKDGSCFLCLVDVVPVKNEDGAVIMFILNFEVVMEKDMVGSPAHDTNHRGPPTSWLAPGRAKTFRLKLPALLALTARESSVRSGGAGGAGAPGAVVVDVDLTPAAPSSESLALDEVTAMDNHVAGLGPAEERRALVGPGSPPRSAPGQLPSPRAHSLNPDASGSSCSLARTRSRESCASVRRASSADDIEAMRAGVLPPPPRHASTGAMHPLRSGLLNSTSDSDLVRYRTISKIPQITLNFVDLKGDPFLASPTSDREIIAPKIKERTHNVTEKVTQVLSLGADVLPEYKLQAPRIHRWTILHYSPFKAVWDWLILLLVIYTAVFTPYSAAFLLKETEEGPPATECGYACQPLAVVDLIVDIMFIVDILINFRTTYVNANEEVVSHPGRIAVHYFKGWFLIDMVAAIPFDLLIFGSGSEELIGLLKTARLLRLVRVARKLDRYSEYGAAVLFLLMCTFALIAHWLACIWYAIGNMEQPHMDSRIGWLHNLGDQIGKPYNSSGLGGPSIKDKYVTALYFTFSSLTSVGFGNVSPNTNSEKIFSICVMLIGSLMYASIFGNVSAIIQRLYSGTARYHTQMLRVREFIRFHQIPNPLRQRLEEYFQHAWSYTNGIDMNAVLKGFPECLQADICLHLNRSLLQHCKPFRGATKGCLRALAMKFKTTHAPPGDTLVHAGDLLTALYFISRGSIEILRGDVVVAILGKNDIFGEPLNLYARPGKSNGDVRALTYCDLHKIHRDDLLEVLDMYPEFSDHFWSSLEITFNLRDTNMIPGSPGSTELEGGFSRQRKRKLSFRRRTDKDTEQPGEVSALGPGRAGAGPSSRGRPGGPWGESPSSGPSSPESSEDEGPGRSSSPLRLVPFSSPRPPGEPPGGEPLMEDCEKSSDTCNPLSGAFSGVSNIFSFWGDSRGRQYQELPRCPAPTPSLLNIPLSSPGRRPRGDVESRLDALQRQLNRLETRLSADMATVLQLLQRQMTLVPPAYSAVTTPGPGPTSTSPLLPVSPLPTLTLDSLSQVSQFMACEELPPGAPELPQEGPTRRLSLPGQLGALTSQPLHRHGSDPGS

In order of falling “hERG current change (%, negative = inhibition) at 1uM” value:
1. N/C(=N\OC(=O)C1CCCCC1)c1ccncc1  17.9%
2. CN(C(=O)COc1ccccc1)C1CCS(=O)(=O)C1 (centres unmarked)  17.8%
3. Nc1c([N+](=O)[O-])cc(F)c(N2CCNCC2)c1Br  17.4%
4. CCC1C(=O)NCCN1C(=O)c1ccccc1OC1CCN(S(C)(=O)=O)CC1 (centres unmarked)  17.4%
5. COc1ccccc1C(=O)NNC(=S)NC(=O)c1ccco1  16.4%
6. Cc1nonc1C(=O)N/N=C/c1ccc(O)cc1  16.3%
7. Cc1cc(C)cc(-n2c(=O)c3ccccc3n(CC(=O)NCC3CCCO3)c2=O)c1 (centres unmarked)  15.3%
8. CSc1nc(N)nc(SCC(=O)OC(C)C)c1C#N  13.3%
9. CC(=O)c1ccc(NC(=S)NC(C)c2ccc(Cl)cc2Cl)cc1 (centres unmarked)  13.2%
10. COc1ccc(C2C(C#N)=C(N)Oc3cc(C)n(Cc4ccco4)c(=O)c32)cc1 (centres unmarked)  13.2%
11. Cc1cc(=O)c2cc(Br)ccc2n1CC(=O)NCc1ccccc1  12.7%
12. CCN(c1ccccc1)S(=O)(=O)c1ccc(OC)c(NC(=O)CN(C)C)c1.O=C(O)C(=O)O  11.4%
13. COc1cc(NC(=O)c2cccnc2SC)cc(OC)c1  11.2%
14. O=C(NCc1ccccn1)c1cccc(NS(=O)(=O)c2ccccc2F)c1  10.9%
15. Cc1cc(=O)[nH]c(N/N=C/CCc2ccccc2)n1  10.8%
16. COC(=O)c1cc(-c2cccc(OC)c2)c2c(=O)[nH]c(=O)n(C)c2n1  10.7%
17. Cc1cccc(-n2ncc3c(NCc4cccs4)ncnc32)c1  10.6%
18. Cc1cc(=O)[nH]c(SCC(=O)Nc2ccc(F)c([N+](=O)[O-])c2)n1  9.88%
19. Cc1ccccc1NC(=O)c1ccc(N/N=C/c2ccccc2O)c([N+](=O)[O-])c1  9.03%
20. CCOC(=O)c1c(C)[nH]c(C)c1S(=O)(=O)N(C)CC(=O)NCc1ccc(F)cc1  8.15%
21. COc1ccccc1NS(=O)(=O)c1cccc(C(=O)NN=C2CCCCCC2)c1  8.14%
22. COc1cc2c(C(=O)O)c(C)n(-c3ccccc3)c2c2ccccc12  8.08%
23. Cc1ccc(NC(=O)CS(=O)CC(=O)N(CC(=O)NC(C)(C)C)c2cccc(C)c2C)cc1 (centres unmarked)  7.99%
24. Cc1cccc(OCc2nnc(SCC(=O)N3CCCC3)o2)c1  7.81%
25. CCOc1ccc(Br)cc1-c1noc(-c2cccs2)n1  7.74%
26. CN1CCN(NC(=O)C2CC2)CC1  7.62%
27. Cn1c(CCNC(=O)c2ccc(Cl)c(Cl)c2)nnc1SCc1ccc(Cl)c(Cl)c1  7.59%
28. O=C(Nc1nc(-c2ccc3c(c2)OCO3)cs1)C1CC1  7.49%
29. CN1CCN(c2nc(-c3ccc(Cl)cc3)cc(=O)[nH]2)CC1  6.77%
30. NC(=O)COc1ccc2cc(-c3ccccc3)c(=O)oc2c1  6.76%
31. Cc1cc(N)nc2nc(C(F)(F)F)nn12  6.71%
32. CCCCN(C)S(=O)(=O)c1ccc(C(=O)Nc2nnc(C3=COCCO3)o2)cc1  6.23%
33. O=C(NCCC(=O)N1CCCCCCC1)c1ccc(Cl)cc1  6.22%
34. O=S(=O)(O)c1cccc2cccc(Nc3ccccc3)c12  6.12%
35. CC(=O)Nc1ccc(S(=O)(=O)N2CCC(c3nc4c(nnn4Cc4ccccc4Cl)c(=O)[nH]3)CC2)cc1  5.82%
36. O=C(OCC(=O)N1CCOCC1)c1ccccc1OCc1ccccc1  5.7%
37. CCn1c(SCC(=O)Nc2ccc3c(c2)c2ccccc2n3CC)nnc1-c1cnccn1  5.44%
38. COc1cccc(CN(C)C(=O)CN2C(=O)NC3(CCCc4ccccc43)C2=O)c1 (centres unmarked)  5.26%
39. Cc1cc(=O)oc2c(C)c(OC(C)C(=O)NC(Cc3c[nH]c4ccc(O)cc34)C(=O)O)ccc12 (centres unmarked)  5.15%
40. CCc1ccc(N2CC(C(=O)NCc3ccco3)CC2=O)cc1 (centres unmarked)  4.59%
41. COc1ccccc1N1CCN(C2CCN(C(=O)c3cc(OC)c(OC)c(OC)c3)CC2)CC1  4.53%
42. CC(=O)Oc1cc2c(cc1Cl)C1(CC(c3ccccc3Cl)O2)CC(C)(C)NC(=S)N1 (centres unmarked)  4.5%
43. CC(C)c1ccc(NC2CCCN(C(=O)c3ccc(N4CCOCC4)cc3)C2)cc1 (centres unmarked)  4.17%
44. O=[N+]([O-])c1ccccc1-c1cc(-c2cc(Cl)ccc2O)n[nH]1  3.78%
45. COc1ccc(NC(=O)c2cc3c(s2)CCC3)cc1S(=O)(=O)N1CCOCC1  3.21%
46. CN(C(=O)C1CCN(S(=O)(=O)c2cccs2)CC1)c1ccccc1  3.06%
47. O=[N+]([O-])c1nn(-c2ccc3c(c2)OCCO3)n(O)c1=NC1CCCCCC1  2.78%
48. O=P(c1ccccc1)(c1ccccc1)C1CCCO1 (centres unmarked)  1.97%
49. COc1ccc(C(CNC(=O)c2oc3c(Cl)cccc3c2C)N2CCCC2)cc1 (centres unmarked)  1.09%
50. Cc1ccc2c(c1)C1CN(C)CCC1N2C(=S)NC(=O)c1ccc(Br)cc1 (centres unmarked)  -0.824%
51. CN(C1CCCCC1)S(=O)(=O)c1ccc(-n2cnnn2)cc1  -2.66%
52. O=C(CSc1nnc(-c2cccnc2)n1-c1ccccc1)Nc1ccccn1  -3.68%
53. Cn1cc([N+](=O)[O-])c(C(=O)N2CCCCCC2)n1  -5.03%
54. COc1c(C(=O)NC(=S)Nc2nnn(C)n2)cc2ccccc2c1Br  -8.82%
55. COc1ccc2[nH]cc(C(=O)CN3CCN(C4CCCCC4)CC3)c2c1  -14.5%
56. COc1ccc(-n2c(NCCN(C)C)nc3sc4c(c3c2=O)CCCCC4)cc1  -69.4%

From PMC4336329 (PLoS ONE, 2015)
